Results as given in PubChem BioAssay AID1508623 (National Center for Advancing Translational Sciences (NCATS), 2021).
Screen size: about 48,000 compounds; about 450 (0.94%) were called active. Inconclusive results, whose numbers are uncertain, are shown with a selection of clear calls. The call rests on the fitted dose curve; in most records, active means well fitted inhibition curve with a large enough effect; inconclusive means small, poorly fitted or top-dose-only effect; inactive means no such curve, though single readings can be large or run the other way. Potencies of inconclusive entries are doubtful fits and often do not repeat.

Test: Primary qHTS for Identification of Small Molecule Inhibitors of Huntingtin Promoter Activity; further: nearly all actives have a fitted effect of over 50% in size
Details: HEK293 HTT promoter firefly luciferase reporter (activity 0% = vehicle and -100% = no light), 24 h; series mostly up to 57.5 µM
Procedure, shortened: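 HEK293 luciferase promoter-reporter cells (2,500/well) plated 24 h, then compounds added at up to 57.5 uM final for 24 h at 37 °C. Firefly luminescence by Dual-Glo, normalized to vehicle (0%) and zero RLU (-100%).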
Potency means the concentration at half of the fitted maximal effect; tags describe the fitted curve by direction and shape.

Compound	Potency
CC(=O)N1CCCc2cc(S(=O)(=O)N(C)CC(=O)Nc3ccc(Cl)cc3C)ccc21	inconclusive: 22.4 µM [inhibitor, partial curve]
Cc1ccc(C)c(NC(=O)c2cc(S(=O)(=O)NCCC3=CCCCC3)ccc2F)c1	inconclusive: 35.5 µM [inhibitor, partial curve, poor fit]
COc1ccc(CNC(=O)C(C(C)C)N2Cc3ccccc3C2=O)cc1 (configuration not stated)	inconclusive: 39.8 µM [inhibitor, single point]
Cc1ccc(-c2onc(C)c2C)cc1S(=O)(=O)NC1CCCCC1	inconclusive: 39.8 µM [inhibitor, single point]
CCN1CCN(CCCNC(=O)c2ccc3c(c2)sc2nc(-c4ccc(OC)cc4)cn23)CC1	inconclusive: 4.47 µM [inhibitor, full curve, poor fit]
NC(=O)C1(N2CCCCC2)CCN(CCCN2c3ccccc3CCc3ccc(Cl)cc32)CC1	inconclusive: 28.2 µM [inhibitor, single point]
CCC(=O)N1CCc2cc(Br)cc(S(=O)(=O)NCCc3ccccc3)c21	inconclusive: 39.8 µM [inhibitor, single point]
O=C(NCCCN1CCN(c2ccccc2F)CC1)c1nnc(Cc2ccc(Cl)cc2Cl)o1	inconclusive: 22.4 µM [inhibitor, single point]
CCOC(=O)CSc1nc2ccc(NC(=O)c3ccccc3)cc2s1	inactive
O=C(CCNS(=O)(=O)c1ccc2c(c1)CCN2C(=O)C1CC1)Nc1ccc(F)cc1F	inconclusive: 31.6 µM [inhibitor, single point]
Cc1cccc(NC(=O)c2cc(S(=O)(=O)N3CCC4(CC3)OCCO4)ccc2F)c1	inconclusive: 39.8 µM [inhibitor, partial curve, poor fit]
CCOC(=O)c1ccc(NC(=O)Cn2cc(C(=O)c3ccc(Cl)cc3)c(=O)c3ccc(C)nc32)cc1	inactive
O=C(NCCc1csc(-c2ccc(F)cc2)n1)c1ccc(Br)o1	inconclusive: 20 µM [inhibitor, partial curve, poor fit]
Cc1cccc(-c2nc(Cn3c(SCc4cccc(C(F)(F)F)c4)nc4ccncc43)c(C)o2)c1	inconclusive: 31.6 µM [inhibitor, single point]
Cc1nc2c(C(=O)NC(C)c3ccccc3)cnn2c(C)c1Cc1ccccc1 (configuration not stated)	inconclusive: 28.2 µM [inhibitor, partial curve, poor fit]
COC(=O)c1cc2occc2n1Cc1nc(-c2ccc(C)cc2)oc1C	inconclusive: 17.8 µM [inhibitor, partial curve, poor fit]
C[C@@]12O[C@@H](C[C@]1(O)CO)n1c3ccccc3c3c4c(c5c6ccccc6n2c5c31)CNC4=O	inconclusive: 4.32 µM [inhibitor, partial curve]
CC1=C(CC(=O)O)c2cc(F)ccc2C1=Cc1ccc(S(C)=O)cc1 (configuration not stated)	inconclusive: 27.3 µM [inhibitor, partial curve, poor fit]
CCCNCC(O)COc1ccccc1C(=O)CCc1ccccc1 (configuration not stated)	inactive

Compound	Potency
CCN(Cc1ccccc1)C(=O)C1CCN(S(=O)(=O)c2c(C)noc2/C=C/c2ccc(C)cc2)CC1	inconclusive: 20 µM [inhibitor, partial curve]
CCn1c(SCc2ccccc2F)nc(=O)c2c(C(=O)OC)cc(C3CC3)nc21	inconclusive: 39.8 µM [inhibitor, single point]
Cc1cccc(N2CCN(C(=O)c3ccc(NC(=O)c4nsc5ccccc45)cc3)CC2C)c1 (configuration not stated)	inconclusive: 25.1 µM [inhibitor, single point]
Cc1ccc(C)c(N2CCN(C(=O)c3ccc4[nH]c(C)c(C)c4c3)CC2)c1	inactive
Cc1ccc(OCc2nc(-c3ccc(C(=O)NCCc4ccc(S(N)(=O)=O)cc4)cc3)oc2C)cc1	inconclusive: 17.8 µM [inhibitor, partial curve, poor fit]
O=C(Nc1ccc2nc(SCC(=O)N3CCCC3)sc2c1)c1ccccc1F	inactive
COc1ccc(CNC(=O)c2c(Nc3ccccc3C)sc(C(=O)c3ccccc3)c2N)cc1	inconclusive: 20 µM [inhibitor, partial curve, poor fit]
Cc1ccc(NC(=O)CN2C(=O)CCc3cc(S(=O)(=O)N4CCCCC4)ccc32)cc1N(C)C	inconclusive: 28.2 µM [inhibitor, partial curve, poor fit]
CCOc1ccc(NC(=O)CNS(=O)(=O)c2ccc(Br)s2)cc1	inactive
CCOC(=O)c1sc2ccccc2c1S(=O)(=O)N1CCN(c2ccccc2)CC1	inconclusive: 39.8 µM [inhibitor, single point]
Cc1ccc(Cl)cc1NC(=O)CSc1nc(C)c(C)c(C)c1C#N	inactive
CCOC(=O)c1cnc2c(C(F)(F)F)cccc2c1Nc1cccc(C(=O)OC)c1	inconclusive: 39.8 µM [inhibitor, single point]
CCOc1ccccc1NC(=O)CSc1nc2c(oc3ccccc32)c(=O)n1Cc1ccco1	inactive
CCc1ccc(CNC(=O)C2CCN(C(=O)N3CC(CC)Oc4ccc(C)cc43)CC2)cc1 (configuration not stated)	inconclusive: 25.1 µM [inhibitor, single point]
COc1ccccc1Nc1c2c(nc3ccc(NC(=O)c4cccc(F)c4)cc13)CCCC2	inconclusive: 39.8 µM [inhibitor, single point]
COc1cc(OC)c(NC(=O)c2c3c(nn2C)-c2ccccc2SC3)cc1Cl	inconclusive: 31.6 µM [inhibitor, single point]
COc1cccc2c1Oc1ncccc1N(c1ccc(C(=O)NCc3cccc(C)c3)s1)C2	inconclusive: 39.8 µM [inhibitor, single point]
CC1(C(=O)Nc2ncc(Cc3ccc(Br)cc3)s2)Cc2ccccc2C(=O)O1 (configuration not stated)	inconclusive: 39.8 µM [inhibitor, single point]
O=C(Nc1cccc2c(=O)cc(-c3nn[nH]n3)oc12)c1ccc(OCCCCc2ccccc2)cc1	inconclusive: 43.2 µM [inhibitor, partial curve, poor fit]

Compound	Potency
O=C(Nc1cc(Cl)cc(Cl)c1)c1ccc(F)c(S(=O)(=O)NCc2ccccc2Cl)c1	inconclusive: 35.5 µM [inhibitor, single point]
CCOc1ccc(NS(=O)(=O)c2ccc3nc(-c4ccccc4)[nH]c3c2)cc1	inactive
COc1cc(OC)c(Nc2c3c(nc4nc(-c5cccs5)nn24)CCCC3)cc1Cl	inconclusive: 15.8 µM [inhibitor, partial curve, poor fit]
Cc1nn(-c2ccccc2)c2sc(C(=O)Nc3cccc(O)c3)cc12	inactive
COc1cc(CN(C(=O)COc2ccc(Cl)c(C)c2)c2ccccn2)cc(OC)c1OC	inconclusive: 39.8 µM [inhibitor, single point]
Cc1ccc(-c2nc(CS(=O)(=O)CC(=O)Nc3cc(C)ccc3C)c(C)o2)cc1	inconclusive: 39.8 µM [inhibitor, single point]
CSc1nc2c([nH]c3ccccc32)c(=O)n1-c1ccc(C)cc1	inconclusive: 35.5 µM [inhibitor, single point]
CSc1ccc(CCNC(=O)c2ccc(CS(=O)Cc3ccc(Cl)cc3)o2)cc1 (configuration not stated)	inconclusive: 28.2 µM [inhibitor, single point]
CCc1ccc2c(c1)NC(c1cccnc1)=NC(c1ccc(C(C)(C)C)cc1)=N2	inconclusive: 25.1 µM [inhibitor, partial curve, poor fit]
Cc1cccc(-c2nc(CSCC(=O)N3CCN(c4cccc(C)c4C)CC3)c(C)o2)c1	inconclusive: 14.1 µM [inhibitor, partial curve, poor fit]
CCOc1ccc(C(=O)Nc2cccc(-c3nc4cccnc4s3)c2C)cc1OCC	inconclusive: 39.8 µM [inhibitor, single point]
CCc1ccc(C(=O)c2cn(CC(=O)Nc3ccc4c(c3)OCO4)c3ccc(F)cc3c2=O)cc1	inconclusive: 25.1 µM [inhibitor, partial curve, poor fit]
O=C(Nc1ccc2nc(SCC(=O)N3CCCc4ccccc43)sc2c1)c1ccc(Cl)cc1	inconclusive: 8.91 µM [inhibitor, partial curve]
CCC(C(=O)NCCc1cc(OC)ccc1OC)n1nc(C)c2c(C)n(-c3ccccc3)nc2c1=O (configuration not stated)	inconclusive: 20 µM [inhibitor, partial curve]
Cc1ccc(Nc2sc(C(=O)c3ccc(F)cc3)c(N)c2S(=O)(=O)c2ccc(C)cc2)cc1	inconclusive: 3.98 µM [inhibitor, full curve]
O=C(CN1C(=O)CCSc2ccccc21)Nc1ccc(C(F)(F)F)cc1	inconclusive: 35.5 µM [inhibitor, partial curve, poor fit]
C=CC[C@@H]1C=C(C)C[C@H](C)C[C@H](OC)[C@H]2O[C@@](O)(C(=O)C(=O)N3CCCC[C@H]3C(=O)O[C@H](C(C)=C[C@@H]3CC[C@H](O)[C@H](OC)C3)[C@@H](C)[C@@H](O)CC1=O)[C@@H](C)C[C@@H]2OC	inconclusive: 43.2 µM [inhibitor, partial curve, poor fit]
CCN(CC)c1ccc(NS(=O)(=O)c2cc(-c3cc(C)no3)ccc2C)c(C)c1	inconclusive: 20 µM [inhibitor, partial curve, poor fit]
O=C(Nc1cccc(C(F)(F)F)c1)Nc1ccc2snnc2c1	inconclusive: 31.6 µM [inhibitor, single point]
